Here are results for 9 compounds from patent US6887983B2, “Purified 20 kDA presenilin 2 C-terminal fragment and methods of screening for compounds that inhibit proteolysis of presenilin 2” (The General Hospital Corporation, priority 1997, dated 2005).

The subject of data set [1] is degradation of PS2. The data set can be described thus: Degradation and turnover of PS2 in tetracycline-inducible PS2-expressing H4 cells, Western blot of detergent-soluble/resistant fractions. It is filed as cell-based, human. The conditions noted are these: for turnover of the PS2-CTF: cell-permeable protease inhibitors, inducible PS2 H4 cells. The protocol:
The H4 founder cells were transfected with 10 μg of each construct and 1 μg of pCNH2hygro, conferring resistance to hygromycin. Hygromycin-resistant colonies were isolated in the presence of tetracycline and screened for PS2 expression by Western blot analysis using antibodies against the FLAG epitope-tag upon removal of tetracycline. […] For induction of PS2, cells were washed five times with prewarmed phosphate-buffered saline to retrieve residual tetracycline and then incubated with complete media without tetracycline for the indicated hours.
Cells were fractionated into detergent-soluble and resistant fractions with CSK buffer (10 mM PIPES (pH 6.8), 100 mM NaCl, 2.5 mM MgCl2, 1 mM CaCl2, 0.3 M sucrose, 1% Triton X-100, 1 mM phenylmethysulfonyl fluoride, 1 μg/ml aprotinin, 1 μg/ml chymostatin, 1 μg/ml leupeptin, 1 μg/ml pepstatin A) (Papadopoulos, V., and Hall, P. F., J. Cell. Biol. 108:553-567(1989)). Cells were washed with ice-cold phosphate-buffered saline and incubated in CSK buffer for 5 min on ice with gentle rocking. The supernatant (detergent-soluble fraction) was collected, and the insoluble structure that remained on the dish was collected, washed one with CSK buffer, and used as detergent-insoluble fraction. The resulting detergent-resistant pellet which consists primarily of cytoskeletal proteins was further incubated with DNase (300 μg/ml) (Papadopoulos, V., and Hall, P. F., J. Cell. Biol. 108:553-567 (1989); Hamaguchi, M., and Hanafusa, H., Proc. Natl. Acad. Sci. USA 84:2312-2316 (1987); Osborn, M., and Weber, K., Exp. Cell Res. 106:339-349 (1977)).
Protein samples were quantiated by the BCA protein assay kit (Pierce). SDS-PAGE was carried out using 4-20% gradient Tris-glycine gels under reducing conditions. Proteins were transferred to polyvinylidene difluoride membrane (Bio-Rad) using a semi-dry electrotransfer system (Hoefer). The blots were blocked with 5% non-fat dry milk in TBST (25 mM Tris (pH 7.6), 137 mM NaCl, 0.15% Tween 20) for 1.5 h, incbated primary antibodies (M2, 3 μg/ml; D-8, 1 to 1000; polyclonal anti-ubiquitin, 1 to 1000; Ubi-1, 1 to 1500) for 1.5 h, and secondary antibodies (horseradish perodixase-conjugated anti-mouse or rabbit antibodies, 1 to 5000) in TBST. Between steps, the blots were washed with TBST for 30 min. For Western blotting with M2 antibodies, 5% (w/v) non-fat dry milk was included in the incubation steps for primary and secondary antibodies. The blot was visualized using the ECL Western blot detection system (Amersham). […] The samples were precleared with protein A conjugated with magnetic beads (Perceptive Diagnosis) for 1 h in the cold room, incubated with either control (rabbit anti-mouse IgG) or anti-FLAG (D-8 at 10 μg/ml) antibodies overnight, further incubated with protein A-magnetic beads (30 μl/sample) for 2 h in the cold room, and washed three times with IP buffer. Immunoprecipitates were collected using a magnetic bead collector, boiled in sample buffer, and subjected to SDS-PAGE and Western blotting using monoclonal anti-ubiquitiin antibodies.
To further investigate the degradation of PS2, the effects of a set of known cell-permeable protease inhibitors on the degradation of PS2, including pepstatin A, Pefabloc SC, E-64, leupeptin, and aprotinin were tested. […] Next, PS2 was tested to determine whether it is polyubiquitinated and degraded by the ubiquitin-proteasome pathway (Hochstrasser, M., Curr. Opin. Cell Biol. 7:215-223 (1995); Hochstrasser, M., Cell. 84:813-815 (1996); Ciechanover, A., Cell 79:13-21 (1994); Finley, D., and Chau, V., Annu. Rev. Cell Biol. 7:25-69(1991)).
To determine the cellular site for polyubiquitination and proteasomal degradation of PS2, the effects of BFA were tested.
In general terms: A western blot detects proteins with antibodies after separation by electrophoresis.

In data set [2] the test system is endogenous PS1 cleavage. The data set can be described thus: Apoptosis-associated cleavage of endogenous PS1 in H4 cells. In kind it is cell-based, human. The protocol:
FIG. 11. […] Inducible PS1 cells were generated similar to as described herein. High-(clone 1.22) and low-(clone 1.24) expressing clones were grown in the presence or absence of tetracycline for 24 hours. […] Identical samples used for FIG. 8 were stained with αPS1 Loop. […] Asterisk indicates non-specific bands.
Whether endogenous PS1 is cleaved by CP32-like proteases following induction of apoptosis was also tested.

In data set [3] the test system is full-length 54 kDa PS2 cleavage. The data set is described as follows: Cleavage of full-length PS2 during etoposide-induced apoptosis in inducible H4 cells (N-terminal FLAG PS2). It is filed as cell-based, human. As to conditions: 20 μM etoposide. The protocol: FIG. 8. Cleavage of full-length 54 kDa PS2 by a zVAD-sensitive protease activated during etoposide-induced apoptosis. Inducible H4 cells expressing PS2 containing N-terminal FLAG epitope were induced for 12 hours and further incubated with media containing 20 μM etoposide. Alternative (34 kDa NTF) and normal (f; 30 kDa) N-terminal cleavage products detected by anti-FLAG antibody and alternative (20K CTF) and endogenous plus normal C-terminal cleavage products (e/f) detected by αPS2Loop were indicated by arrows.
Thus, whether the alternative PS2-CTF was generated from full-length 54 kDa PS2 during apoptosis was tested. […] The alternative NTF was 34 kDa while the “normal” NTF, labeled as band f in the top panel of FIG. 8, was 30 kDa. The alternative PS2 cleavage fragments were first observed at 3 hours post-treatment with etoposide.

The subject of data set [4] is generation of alternative 14 kDa PS1-CTF. The data set can be described thus: Generation of alternative 14 kDa PS1-CTF in inducible H4 cells overexpressing PS1. In kind it is cell-based, human. The conditions noted are these: PS1-overexpressing cell lines. The protocol:
FIG. 11. […] Inducible PS1 cells were generated similar to as described herein. High-(clone 1.22) and low-(clone 1.24) expressing clones were grown in the presence or absence of tetracycline for 24 hours. As similar to those shown for PS2, multiple PS1 CTFs were detected in the PS 1-overproducing cells, including 23 kDa endogenous PS1 CTF (arrow e′), transgene-derived normal cleavage product (arrow f′), and aberrant 14 kDa PS1 fragment. (b, c, d) Cleavage of endogenous PS1 CTF during STS-induced apoptosis. Identical samples used for FIG. 8 were stained with αPS1 Loop. PS1 CTF was further cleaved into smaller 14 kDa fragment during apoptotic process. […] Asterisk indicates non-specific bands.
The point mutations in the potential aspartate cleavage sites of PS2 (D326A and D329A) and control aspartate (D308A) were introduced into a PS2 open reading frame by site-directed mutagenesis using Muta-Gene phagemid kit (BioRad). The inducible construct encoding the full-length PS1 with 3′ FLAG epitope sequence was generated as described for PS2 herein. […]
Next, whether PS1, a closely related homologue of PS2, also undergoes alternative cleavage when overexpressed and/or during apoptosis was tested. […] However, in the clonal cell line expressing lower levels of PS1 (clone IF24), full-length PS1 and the normal CTF were predominantly detected while the alternative 14 kDa CTF fragment was not detectable.

The subject of data set [5] is endogenous PS2 cleavage in H4 human neuroglioma cells. The data set can be described thus: Apoptotic cleavage of endogenous PS2 in untransfected H4 cells (staurosporine or etoposide), Western blot.
The subject of data set [6] is generation of the 20 kDa PS2-CTF. The data set is described as follows: Generation of 20 kDa PS2-CTF in H4 cells overexpressing PS2, Western blot with αPS2Loop. The conditions noted are these: FIG. 7d; for generation of the 20 kDa PS2-CTF: cells overexpressing PS2, induced 24 h, inhibitor added at induction.

Where a SMILES comes first, the peptide text is derived from it. [ ]: non-standard residue; d: D form. The star is where a group is joined. Sta = CC(C)C[C@H](N)[C@@H](O)CC(=O)O; Isovaleryl = CC(C)CC(=O)*

For `C[C@H]1CCC/C=C/[C@@H]2C[C@H](O)C[C@H]2[C@H](O)/C=C/C(=O)O1` [BFA, Brefeldin A], the “degradation of full-length PS2” value in data set [1] (BFA 5 μg/ml, 12 h after 12 h induction, FIG. 6) is “rapid degradation of full-length PS2”.

As to `CC(C)C[C@H](NC(=O)[C@H]1O[C@@H]1C(=O)O)C(=O)NCCCCN=C(N)N` [E-64], the “turnover of the PS2-CTF” value in data set [1] was “None of these protease inhibitors affected the turnover of the PS2-CTF”.

Consider `Cl.NCCc1ccc(S(=O)(=O)F)cc1` [Pefabloc SC], for which, in data set [1], the “turnover of the PS2-CTF” value was “None of these protease inhibitors affected the turnover of the PS2-CTF”.

As for `COc1cc([C@@H]2c3cc4c(cc3[C@@H](O[C@@H]3O[C@@H]5CO[C@@H](C)O[C@H]5[C@H](O)[C@H]3O)[C@H]3COC(=O)[C@H]23)OCO4)cc(OC)c1O` [etoposide], in data set [2] (H4 cells, FIG. 11b, 11d), the “generation of the 14 kDa PS1-CTF on induction of apoptosis” value was “led to the generation of the 14 kDa CTF” and the “phosphorylation of the endogenous PS1 CTF” value is listed as “did not block phosphorylation of the endogenous PS1-CTF”. Also, the “time at which alternative PS2 cleavage fragments were first observed post-treatment” value in data set [3] is 3 h. For the same compound, in data set [3] (low-expressing inducible H4 line, 12 h post-induction, FIG. 8), the “generation of alternative 20 kDa CTF and alternative N-terminal fragment (NTF)” value is reported as “the alternative 20 kDa CTF as well as the corresponding alternative N-terminal fragment (NTF) were generated”.

On to `CC(=O)N[C@@H](CSC(=O)[C@]1([C@@H](O)C(C)C)NC(=O)[C@H](C)[C@@H]1O)C(=O)O` [lactacystin, Lactacystin], for which the “levels of HMW-PS2” value in data set [1] (ALLN 50 μM or lactacystin 10 μM for 12 h after 12 h induction, clone WF2, FIG. 5A) was “dramatically increased levels of HMW-PS2”.

Turning to `CC(=O)N[C@@H](CC(C)C)C(=O)N[C@@H](CC(C)C)C(=O)N[C@H](C=O)CCCNC(=N)N` [leupeptin], the “turnover of the PS2-CTF” value in data set [1] is “None of these protease inhibitors affected the turnover of the PS2-CTF”.

`CC(C)CC(=O)N[C@H](C(=O)N[C@H](C(=O)N[C@@H](CC(C)C)[C@@H](O)CC(=O)N[C@@H](C)C(=O)N[C@@H](CC(C)C)[C@@H](O)CC(=O)O)C(C)C)C(C)C` [pepstatin A] (Isovaleryl-VV[Sta]A[Sta]-OH): the “turnover of the PS2-CTF” value in data set [1] is “None of these protease inhibitors affected the turnover of the PS2-CTF”.

For `COC(=O)CC[C@H](NC(=O)[C@H](CC(=O)OC)NC(=O)OCc1ccccc1)C(=O)N[C@H](C(=O)N[C@@H](CC(=O)OC)C(=O)CF)C(C)C` [zDEVD-fmk], the “apoptosis-associated cleavage of endogenous PS1” value in data set [2] (STS- or etoposide-induced, FIGS. 11c and 11d) is reported as “blocked”. The “generation of alternative 14 kDa PS1-CTF” value in data set [4] is recorded as “blocked”. Further, the “concentration equally effective in inhibiting apoptosis-induced cleavage of PS2” value in data set [5] (1 μM STS 18 h, relative amount of 20 kDa fragment, FIG. 9e) stood at 100 µM. Moreover, the “normal processing of PS2 (generation of 25 kDa endogenous fragment)” value in data set [5] (H4 cells undergoing apoptosis) is recorded as “no effect on normal processing of PS2”. The “alternative cleavage of endogenous PS2 during staurosporine-induced or etoposide-induced apoptosis” value in data set [5] (H4 cells, inhibitor pre-treatment 1 h, 2 μM STS or 20 μM etoposide 18 h, FIGS. 9b-9d) is listed as “specifically blocked”. Moreover, the “generation of the 20 kDa PS2-CTF” value was “blocked” in data set [6] and “blocked the generation of the 20 kDa PS2-CTF” in data set [6] (listed as zDEVD). For the same compound, in data set [6] (cells overexpressing PS2), the “levels of the endogenous 25 kDa CTF, the 26 kDa transgene-derived CTF, or other PS2 species” value is on record as “no effect”.

As for aprotinin, the “turnover of the PS2-CTF” value in data set [1] is “None of these protease inhibitors affected the turnover of the PS2-CTF”.
